Measured values published in PubChem BioAssay AID686971 (National Center for Advancing Translational Sciences (NCATS), 2013).
About 7,500 (2.1%) of roughly 360,000 compounds were called active. The inconclusive results got no clear call from the source; some entries with a clear call stand among them for comparison. The call rests on the fitted dose curve; in most records, active means well fitted cell-killing curve with a large enough effect; inconclusive means small, poorly fitted or top-dose-only effect, or effect the other way, or another doubt; inactive means no such curve, though single readings can be large or run the other way. Potencies of inconclusive entries are left out as doubtful fits.

assay: qHTS for induction of synthetic lethality in tumor cells producing 2HG: qHTS for the HT-1080-IDH1KD cell line; details: HT-1080 IDH1 knockdown viability, ATP luminescence, 48 h; activity, negative = toxicity: at 46.1 µM (top of the series) unless noted;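 on activity, negative = toxicity: 0% = DMSO wells and -100% = cell-free medium wells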
Summary of the method: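 Viability of IDH1-knockdown HT-1080 fibrosarcoma cells was assessed by CellTiter-Glo after 48 h at 37 °C with titrated compound; concentration-effect curves were classified by fit quality and response size.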
Potency means the concentration at half of the fitted maximal effect; tags describe the fitted curve by direction and shape.

SMILES	Potency	activity, negative = toxicity
Cc1nn(C(C)(C)C)c(OC(=O)CC(C)C)c1S(=O)(=O)c1ccccc1	inconclusive [cytotoxic, single point]	
NC(=O)c1ccccc1OCc1cccc2ccccc12	inconclusive [cytotoxic, single point]	
CC(OC(=O)c1cccc(S(=O)(=O)N2CCCC2)c1)C(=O)NC1CCCCC1C (stereo not given)		inactive: -14.8%
COc1cccc(NC(=O)CN(C)C(=O)CN2C(=O)NC(C)(c3ccc4ccccc4c3)C2=O)c1 (stereo not given)	inconclusive [cytotoxic, single point]	
CNc1ccc(Br)cc(C(=O)/C=C/c2cccc(OC)c2)c1=O	inconclusive [cytotoxic, single point]	
CC(C)C[C@H](NC(=O)c1[nH]cnc1C(=O)Nc1ccc(Cl)cc1)C(=O)OC(C)(C)C	inconclusive [cytotoxic, single point]	
Cc1cc(Cn2nc(-c3ccccc3)cc2C(=O)NCC2CC2)on1		inactive: -2.54%
COc1ccc(-c2cc(NC(C)=O)c3ncc(-c4cccc(C(F)(F)F)c4)n3c2)c(OC)c1	inconclusive [cytotoxic, single point]	
CC(C)(C)NC(=O)C(c1ccc(-c2ccccc2)cc1)N(C[C@H]1CC[C@@H]([C@@H]2CC[C@H](CO)O2)O1)C(=O)c1ccc2ccccc2c1 (stereo not given in full)	inconclusive [cytotoxic, single point]	
CCOc1ccc(CNC(=O)C2CCCN(c3nnc(C)c4c(C)n(-c5ccccc5)nc34)C2)cc1 (stereo not given)	inconclusive [cytotoxic, single point]	
CCOC(=O)c1[nH]c(C=O)c(C(=O)OCC)c1C	active: 3.66 µM	
O=S(=O)(Nc1ccc(NS(=O)(=O)c2ccccc2)c2ccccc12)c1ccccc1		inactive: -20.7%
CCOC(=O)c1c(C)[nH]c(C)c1C(=O)COC(=O)/C=C/c1ccc(OC(F)F)cc1		inconclusive: -31.2% [cytotoxic]
COc1ccc(C(C)NCCC(c2ccc(OC(C)C)cc2)c2ccccc2OC)cc1 (stereo not given)	inconclusive [cytotoxic, single point]	
Cc1ccc(N2C(N)=C(C#N)C(c3cccnc3)C3=C2CC(C)(C)CC3=O)cc1 (stereo not given)	inconclusive [cytotoxic, single point]	
CCCCCNC(=O)C(C1CC1)n1c(=O)c(-c2cc3ccccc3[nH]2)nc2ccccc21 (stereo not given)	inconclusive [cytotoxic, single point]	
CCc1ccc(N=C2NC(=O)/C(=C/c3cc(OC)c(OC)c(OC)c3)S2)cc1	inconclusive [cytotoxic, single point]	
CC(C)c1cc(C(=O)O)n(-c2ccccc2)n1	inconclusive [rising, single point]	
CC1=CC(C)(C)Nc2ccc(OC(=O)CN3C(=O)C4CCCCC4C3=O)cc21 (stereo not given)	inconclusive [cytotoxic, single point]	
C[C@H]1CN([C@@H](C)CO)C(=O)c2cccc(NS(=O)(=O)c3ccc(F)cc3)c2O[C@H]1CN(C)Cc1ccc(Cl)c(Cl)c1	inconclusive [cytotoxic, single point]	
COc1ccc(CCNC(=O)c2nnn(-c3cccc(C)c3)c2N)cc1OC		inactive: 0.646%
Cc1ccc(-c2cc(C(=O)N/N=C/c3cccnc3)c3ccccc3n2)cc1C	inconclusive [cytotoxic, single point]	
Cc1ccnc(NC(=O)c2ccccc2NC(=O)c2ccc(Cl)cc2Cl)c1	active: 4.61 µM	

SMILES	Potency	activity, negative = toxicity
COc1ccc(/C=N/NC(=S)Nc2ccccc2[N+](=O)[O-])cc1O	inconclusive [cytotoxic, single point]	
COC(=O)c1ccc(CNC(=O)C(Cc2ccccc2)NC(=O)c2ccccc2)cc1 (stereo not given)		inactive: -0.819%
O=C(Nc1c(-c2ccccc2)[nH][nH]c1=O)c1cccs1		inactive: 18.6%
COc1ccc(CNC(=O)CN2CCC(NC(=O)c3ccc(OC)cc3)CC2)cc1		inactive: -1.88%
O=S1(=O)CC2SC(=S)N(Cc3ccccc3)C2C1 (stereo not given)		inactive: 9.94%
O=C1CC(N2CCN(c3ccc(F)cc3)CC2)C(=O)N1Cc1ccc(N2CCCC2=O)cc1 (stereo not given)	inconclusive [cytotoxic, single point]	
COC(=O)c1scc(C)c1S(=O)(=O)Nc1ccc(C)cc1		inconclusive: -38.4% [cytotoxic]
COc1ccc(C(=O)c2[nH]c(N)c(C(=O)NCCc3c[nH]c4ccccc34)c2-c2ccccc2Br)cc1	inconclusive [cytotoxic, single point]	
O=C1c2ccccc2N2C(=O)c3ccccc3C2N1Cc1ccccc1 (stereo not given)	inconclusive [rising, single point]	
CCCCN1C=CC(=C2C(=O)c3ccccc3C2=O)C=C1	active: 23.1 µM	
CS(=O)(=O)c1[nH]nc(-c2ccccc2)c1C#N		inactive: -0.671%
C#Cc1cccc(Nc2nc(NCc3ccccc3)nc3ccsc23)c1	inconclusive [cytotoxic, single point]	
CN(C)CCCN1C(=O)c2cccc3cccc(c23)C1=O	inconclusive [cytotoxic, single point]	
COc1ccc(OC)c(-c2cc(-c3cccnc3)nc(N)c2C#N)c1	active: 1.46 µM	
Cc1ccccc1-n1nc2c(c1NC(=O)CCCl)CSC2		inactive: 0%
CCOc1ccc(NS(=O)(=O)c2ccc(OCC)c3ncccc23)cc1	active: 10 µM	
CCCCN1C(=S)SC(C)(C)C1/[N+]([O-])=C/c1cccnc1 (stereo not given)		inactive: 9.3%
Cc1ccc(S(=O)(=O)NN=Cc2ccco2)cc1		inactive: 9.56%
O=CN1CCN(S(=O)(=O)c2ccc(Cl)c(C(=O)O)c2)CC1		inactive: 15%
Cc1ccc2oc(=O)cc(CN3CCN(C/C=C/c4ccccc4)CC3)c2c1		inactive: 10.4%
O=C(NCCc1ccccc1)C(c1cccs1)N(C(=O)CCl)c1ccc(Cl)cc1 (stereo not given)	active: 1.64 µM	
CCn1c(/N=C/c2c[nH]c3ccccc23)nc2ccccc21	inconclusive [cytotoxic, single point]	
